Test results reported in the supplement of paper PMC12217912.
The other results are listed elsewhere or left out. Sequences were assembled here from the parent chain. Values near 0.05 are background.

B1: TEV protease; numbered along this chain (parent)
chain: MGESLFKGPRDYNPISSSICHLTNESDGHTTSLYGIGFGPFIITNKHLFRRNNGTLVVQSLHGVFKVKDTTTLQQHLVDGRDMIIIRMPKDFPPFPQKLKFREPQREERICLVTTNFQTKSMSSMVSDTSCTFPSGDGIFWKHWIQTKDGQCGSPLVSTRDGFIVGIHSASNFTNTNNYFTSVPKNFMELLTNQEAQQWVSGWRLNADSVLWGGHKVFMVKPEEPFQPVKEATQL

Variants of: B1
Assay: raw area under fraction-flipped curve 0-4 h after induction (AUC4h, not background-subtracted), DNA-recorder readout of cleavage of the substrate (dimensionless); higher = more cleavage of the substrate by the protease variant
Details: temperature: 34 °C; time window: 0-4 h after rhamnose induction
Protocol: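 In vivo DNA recorder in E. coli TOP10(DE3) ΔrhaA at 34 °C. Each TEVp single-site mutant (parent TEVp 0) is paired with a single-site variant of the 7-mer TEVs (canonical ENLYFQ|S). The substrate sits between flexible linkers in a Bxb1-sfGFP-TEVs-SsrA fusion, so cleavage stabilises Bxb1 and speeds flipping of a recombination array, read by NGS. The value is the raw area under the fraction-flipped curve over 0-4 h after rhamnose induction (AUC4h), with ≥20 reads per time point. It is not background-subtracted; inactive controls average about 0.047.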
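Further: Bxb1 expression induced with 0.2% (w/v) L-rhamnose at OD600 near 0.5, cultures sampled hourly, flipped fraction per protease–substrate barcode pair counted by paired-end Illumina sequencing.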

| Variant | area with substrate ENLYFQA | area with substrate ENLYFQC | area with substrate ENLYFQI | area with substrate ENLYFQL | area with substrate ENLYFQM | area with substrate ENLYFQP | area with substrate ENLYFQR | area with substrate ENLYFQS | area with substrate ENLYFQT | area with substrate ENLYFQV | area with substrate ENLYFQW | area with substrate ENLYFQY | area with substrate ENLYFQD | area with substrate ENLYFQE | area with substrate ENLYFQF | area with substrate ENLYFQG | area with substrate ENLYFQH | area with substrate ENLYFQN | area with substrate ENLYFQK | area with substrate ENLYFQQ |
| --- | --- | --- | --- | --- | --- | --- | --- | --- | --- | --- | --- | --- | --- | --- | --- | --- | --- | --- | --- | --- |
| V165T | 0.0676 | 0.0803 | 0.0553 | 0.052 | 0.0623 | 0.0512 | 0.0338 | 0.0781 | 0.0481 | 0.0776 | 0.0494 | 0.0513 | – | – | – | – | – | – | – | – |
| V165R | 0.0553 | 0.0524 | 0.069 | 0.0392 | 0.0548 | – | 0.0565 | 0.0535 | 0.0508 | – | 0.0565 | 0.0587 | 0.0523 | 0.053 | 0.0449 | 0.0512 | 0.0288 | 0.0616 | – | – |
| W199N | 0.0817 | 0.0689 | – | 0.0558 | – | – | 0.0522 | 0.0665 | 0.0563 | 0.0957 | – | – | – | – | 0.0561 | – | 0.0673 | 0.0488 | 0.0651 | – |
| W199E | 0.0459 | 0.0852 | 0.0628 | – | 0.0624 | – | 0.0608 | 0.0626 | 0.0707 | – | – | – | 0.0738 | – | 0.0597 | 0.0548 | 0.0659 | 0.056 | 0.0437 | – |
| L190Y | 0.0693 | 0.122 | – | 0.061 | 0.0764 | 0.0531 | 0.0688 | 0.0857 | 0.0648 | 0.0534 | 0.0743 | 0.0698 | 0.0853 | – | 0.0602 | 0.0678 | – | – | 0.0601 | – |
| L190M | 0.0904 | 0.113 | – | – | 0.091 | – | 0.0573 | 0.102 | – | 0.0662 | 0.0625 | 0.0437 | 0.0501 | – | – | 0.108 | – | 0.0775 | 0.0699 | 0.0684 |
| T192M | 0.101 | 0.111 | 0.0659 | 0.0526 | 0.0788 | 0.0569 | 0.0627 | 0.0988 | 0.0702 | 0.076 | – | 0.0911 | – | 0.0522 | 0.0744 | 0.0878 | 0.0726 | 0.12 | 0.0648 | 0.0834 |
| F187M | 0.145 | 0.125 | 0.0389 | 0.0642 | 0.0997 | 0.0488 | 0.056 | 0.0992 | – | 0.0576 | 0.0733 | 0.0678 | – | 0.066 | – | 0.111 | 0.0824 | 0.0887 | – | – |
| K185G | 0.158 | 0.138 | 0.0472 | 0.0621 | – | 0.0518 | 0.0596 | 0.109 | 0.0645 | 0.0663 | 0.0555 | – | 0.0601 | – | – | – | – | 0.0757 | 0.067 | – |
| E195K | 0.103 | 0.101 | 0.0463 | 0.0527 | 0.0833 | 0.0713 | 0.0566 | 0.0988 | 0.0624 | 0.0825 | 0.0639 | 0.0742 | 0.0774 | 0.0917 | 0.0779 | 0.121 | – | 0.0734 | 0.0652 | 0.0706 |
| V183H | 0.0641 | 0.0688 | 0.0388 | 0.0626 | 0.0504 | 0.0496 | 0.0493 | 0.0609 | 0.0603 | – | 0.0528 | – | – | – | 0.0568 | – | 0.0564 | 0.0574 | 0.0268 | 0.057 |
| Q197D | 0.0842 | 0.0856 | – | 0.0637 | – | 0.0647 | 0.0601 | 0.0861 | 0.0421 | – | – | 0.0784 | – | – | – | 0.097 | 0.0711 | – | 0.0657 | 0.0697 |
| N177S | 0.0832 | 0.0788 | 0.049 | 0.0467 | 0.0701 | 0.0328 | 0.0486 | 0.0821 | 0.0484 | 0.0316 | 0.0522 | 0.0507 | 0.0574 | 0.0626 | 0.0349 | 0.0741 | 0.0762 | 0.0473 | 0.0675 | 0.0715 |
| G166D | 0.0393 | 0.0519 | 0.0536 | 0.0531 | 0.0543 | 0.064 | 0.0502 | 0.0521 | 0.0401 | 0.0609 | 0.0479 | 0.0716 | 0.0464 | 0.0474 | 0.0506 | 0.0361 | 0.0591 | – | – | 0.093 |
| G166M | 0.0435 | 0.0561 | 0.0475 | 0.0395 | 0.0488 | – | 0.0452 | 0.0496 | 0.0497 | 0.0435 | 0.0418 | 0.0507 | 0.052 | – | 0.0472 | 0.049 | – | – | – | – |
| G166A | 0.0363 | 0.0519 | 0.0715 | 0.0525 | 0.0479 | 0.0379 | 0.0622 | 0.0516 | 0.0527 | 0.0451 | 0.074 | – | 0.0514 | – | 0.044 | 0.0505 | 0.0283 | 0.0467 | 0.051 | 0.0462 |
| L191F | 0.0993 | 0.136 | 0.055 | – | 0.0905 | 0.0629 | 0.0587 | 0.0919 | 0.063 | 0.0543 | 0.0759 | 0.0696 | – | – | 0.0778 | 0.0855 | 0.108 | 0.0797 | 0.052 | – |
| L191K | 0.0779 | – | 0.0468 | 0.0567 | 0.0499 | 0.0707 | 0.0615 | 0.0573 | 0.0557 | 0.0352 | – | 0.0537 | 0.0537 | – | 0.0599 | 0.099 | 0.0563 | 0.0459 | 0.0582 | – |
| T176K | 0.0742 | 0.0828 | 0.0618 | 0.0607 | 0.0687 | 0.0455 | 0.0682 | 0.073 | 0.0551 | – | 0.0702 | 0.0406 | – | – | – | – | – | 0.064 | 0.0618 | – |
| Q194F | 0.0753 | 0.0826 | 0.0553 | 0.0566 | – | 0.0465 | 0.0566 | 0.102 | 0.0646 | 0.0611 | 0.0579 | – | – | 0.0851 | – | – | 0.0638 | 0.0726 | – | 0.0649 |
| M188P | 0.0707 | 0.0948 | 0.0603 | 0.0587 | 0.0895 | – | 0.0535 | 0.0975 | 0.0476 | – | 0.0804 | – | 0.0713 | – | 0.0722 | – | – | 0.0733 | 0.0598 | – |
| S169M | 0.0763 | 0.0682 | 0.0297 | – | 0.0615 | – | 0.0623 | 0.0723 | 0.0558 | 0.0413 | 0.0609 | 0.0618 | 0.0617 | 0.0595 | 0.0767 | 0.0818 | – | 0.0607 | 0.0699 | 0.0604 |
| S169W | 0.0564 | – | 0.0683 | 0.0458 | – | – | 0.0453 | 0.0603 | 0.0595 | 0.0512 | 0.103 | – | – | – | – | – | – | 0.0419 | 0.0646 | 0.0615 |
| S171L | 0.0546 | 0.0513 | 0.0524 | 0.0668 | – | 0.06 | 0.0502 | 0.0609 | 0.0566 | – | – | 0.0548 | 0.0615 | – | – | 0.0782 | 0.0497 | 0.0602 | 0.0746 | 0.0545 |
